The text below walks through data of PubChem BioAssay (NCI).

Each structure is given as a SMILES string. Several values for one entry are separate records, joined by “and”; a condition that tells them apart may be missing. Equal entries are not always repeated.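 Dose response: 5 concentrations. Exposure: 48 h. Format: 96-well plates. Endpoint: linear interpolation; highest concentration if not reached. Here, GI50 denotes the concentration required for 50% inhibition of growth. TGI is the concentration that stops growth completely.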 Peptide text beside a SMILES is read from it.

This test deals with NCI-H322M lung. As to the kind of experiment: NCI tumour cell line growth inhibition, 48 h.
On to `C[C@H](CCC(=O)NCC(=O)O)[C@H]1CC[C@H]2[C@@H]3[C@H](O)C[C@@H]4C[C@H](O)CC[C@]4(C)[C@H]3CC[C@]12C`, for which the TGI is greater than 100 µM.
Still for that read-out and setting: in the case of `Nc1cc2c3c(cccc3c1)C(=O)N(c1ccc(OCCN3CCCC3)cc1)C2=O` it was 50.3 µM.
Turning to `COc1cc2c(cc1OCCCOc1ccc(-c3nc4ccc(N5CCN(C)CC5)cc4[nH]3)cc1)N=C[C@@H]1CCCN1C2=O`, the GI50 is less than 0.01 µM and the TGI was less than 0.01 µM.
`S=c1c2ccccc2c(=S)n2n1CC=CC2` showed a TGI greater than 100 µM.
For the molecule `O=C(C=C=Nc1ccccc1)C(=O)N=C=Cc1ccccc1`, the GI50 was 20.9 µM and the TGI is greater than 52.5 µM.
Consider `CCOC(=O)C1=C(C)N(C2OC(COC(=O)c3ccccc3)C(OC(=O)c3ccccc3)C2OC(=O)c2ccccc2)C(=S)NC1c1ccccc1` (stereo not given), for which the TGI was greater than 100 µM.
On the same count and under the same terms, the figure for `O=C(CCC1CCCCN1)Nc1ccc2c(c1)C(=O)c1ccc(NC(=O)CCN3CCCCC3)cc1C2=O` (stereo not given) is 35.9 µM; for `O=C(/C=C/c1ccccc1)CCC1C(=O)NC(=S)NC1=O` it is greater than 100 µM.
Still for that read-out and setting: in the case of `S=c1nc[nH]c2c1ncn2C1CCCO1` (stereo not given) it was greater than 100 µM.
`CCOC(=O)c1c(C)n(Cc2ccccc2)c2c1cc1oc(=O)c(=O)n3cnc2c13`: the GI50 was 27.8 µM and the TGI was greater than 50 µM.
Taken in the same sequence, the figures for `Nc1c(C(=O)Nc2cccc3ccccc23)sc2nc3c(cc12)C(=O)CCC3` were 0.584 µM and greater than 89.1 µM.
The like results for `COc1cccc(NC2=C(Cl)C(=O)N(Cc3ccc(Cl)cc3)C2=O)c1` were, in that order, 5.41 µM and 32.8 µM.
Take `CCCCCCCCCCSC(=N)N`: the GI50 was 3.54 µM and the TGI stood at 13.4 µM.
For the molecule `COc1cc2c3c(cc(Cl)nc3c1OC)C(O)(CC(=O)c1ccccc1)C(=O)N2` (stereo not given), the TGI is 32.5 µM.
On to `C=C(C)[C@@H]1CC[C@]2(C(=O)NC(C)=O)CC[C@]3(C)[C@H](CC[C@@H]4[C@@]5(C)CCCNC(C)(C)[C@@H]5CC[C@]43C)[C@@H]12`, for which the GI50 is 1.55 µM and the TGI is 2.89 µM.
In turn, `CCOC(=O)CCC(NC(=O)c1ccc(Nc2nc3ccccc3nc2C(=O)OCC)cc1)C(=O)OCC` (stereo not given) displayed a TGI of 58.4 µM.
Regarding `COc1ccc(C2=NC(c3ccc(Cl)cc3)C(c3ccc(Cl)cc3)N2C(=O)N2CCNC(=O)C2)c(OC(C)C)c1` (stereo not given), the GI50 is 1.99 µM and the TGI came out at 3.71 µM.
Molecule `CCc1cc(Cc2ccc(C)c(NC(=O)C(=O)C3C(=O)NC(=O)NC3=O)c2CC)cc(C)c1NC(=O)C(=O)C1C(=O)NC(=O)NC1=O` returned a TGI greater than 100 µM.
Regarding `O=C(Nc1nc2ccccc2s1)c1cc(-c2ccc(F)cc2)n2nc(-c3ccccc3)cc2n1`, the GI50 was 5.84 µM and the TGI is greater than 100 µM.
Turning to `COC(=O)C(NC(=O)OC(C)(C)C)P(=O)(OC)OC` (stereo not given), the TGI was greater than 100 µM.
As for `CC(=O)c1sc2[n+](c1C)C(=O)/C(=C\c1ccccc1Cl)S2`, the TGI was greater than 100 µM.
Still for that read-out and setting: in the case of `O=C1c2cc([N+](=O)[O-])sc2C(=O)c2c([N+](=O)[O-])csc21` it was 3.2 µM.
On the same count and under the same terms, the figure for `COc1ccc(CNc2nc3ccccc3nc2C(=O)O)cc1` is greater than 100 µM.
In the case of `COc1ccc(C2=Nc3c/c(=C\c4c(O)[nH]c5cc(Cl)ccc45)ccc3=N2)cc1`, the GI50 was 17 µM and the TGI worked out at 49.6 µM.
For `COC(=O)C(C(=O)C(N)=O)c1csc(-n2nc(-c3ccccc3)cc2-c2ccccc2)n1` (stereo not given), the TGI was greater than 31.6 µM.
The same measure, in the same setting: in the case of `CC1=CC(=O)NP(=O)(C23CC4CC(CC(C4)C2)C3)N1` (stereo not given) it was greater than 100 µM.
Take `COc1ccc(-n2cnc3c(NC(Cc4ccccc4)C(=O)O)ncnc32)cc1` (stereo not given): the TGI is greater than 100 µM.
Consider `C(#Cc1ccccc1)SC1=C(c2ccccc2)S/C(=C(\SC#Cc2ccccc2)c2ccccc2)S1`, for which the TGI is greater than 100 µM.
Same read-out and setting: the figure for `O=C(NCCCCCN1CCC2(CCCCC2)CC1)C(C1CCCCC1)C1CCCCC1` is 12.6 µM.
`O=C(CCCCCCCCC(=O)N/N=C\c1cc(Cl)ccc1O)N/N=C\c1cc(Cl)ccc1O`: the GI50 is 0.213 µM and the TGI is greater than 100 µM.
As to `C=C1C(=O)OC2C3OC(C)(CCC(O)C3COC(C)=O)CC(OC(=O)/C(=C/C)COC(C)=O)C12` (stereo not given), the TGI was found to be 22.9 µM.
For the molecule `O=C(NOCCO)c1cc(CN2OCCCC2=O)c(F)c(F)c1Nc1ccc(I)cc1F`, the GI50 is 0.206 µM and 0.177 µM; the TGI is 76.8 µM and > 10 µM.
`C/C(=N\NC(N)=S)c1ccc(C2CCCCC2)cc1`: the TGI turned out to be 83.6 µM.
On the same count and under the same terms, the figure for `CC(C)(C)[Si](C)(C)OC[C@H](/C=C\CCCC(=O)O)NC1(c2ccccc2)c2ccccc2-c2ccccc21` is 95.9 µM; for `COc1cc(/C=N/NC2=NCCN2)ccc1O` it is greater than 100 µM.
For `NC(=O)c1ccc(N(C(N)=O)c2c(F)cccc2F)nc1-c1ccc(F)cc1F`, the GI50 was greater than 100 µM and the TGI is greater than 100 µM.
Turning to `O=C(/C=C/c1ccco1)c1ccc(Nc2nc(Nc3ccc(F)cc3)nc(Nc3ccc(F)cc3)n2)cc1`, the GI50 was 3.61 µM and the TGI was greater than 100 µM.
For `CC/C(=C\c1ccc(OC)cc1)c1ccc(OC)cc1`, the TGI was greater than 100 µM.
Regarding `N#CC(C(=O)CCCC(=O)Nc1ccc(Cl)cc1Cl)c1ccc(Cl)cc1` (stereo not given), the TGI is greater than 100 µM.
`O=C1CC(c2ccccc2)S(=O)c2ccccc2N1` (stereo not given) showed a TGI greater than 100 µM.
As for `CN(C(=O)CNC(=O)/C=C/c1cccc(Cl)c1)C1CCS(=O)(=O)CC1`, the GI50 was 20.6 µM and the TGI is greater than 100 µM.
In turn, `CCOC(=O)C1=C(C)N(Cc2ccccc2)C2(O)C=CC(=O)C3=C(O)c4ccccc4C(=O)C312` (stereo not given) came in with a TGI of 43.6 µM.
In turn, `CN(C)/C=C/C=C(/C=N/S(=O)(=O)C(F)(F)F)C1C=CN(S(=O)(=O)C(F)(F)F)C=C1` gave a TGI greater than 100 µM.
As for `Cc1ccc2c(c1C)C(=O)/C(=C/c1cccc(C)c1C(=O)O)C2`, the TGI is greater than 100 µM.
`CCCCCCCCCCCCOP(=O)(O)OP(=O)(O)OCC1OC(n2cc(C)c(=O)[nH]c2=O)CC1O` (stereo not given): the TGI was greater than 100 µM.
Regarding `CC(NC(=O)C(Cc1ccc(OC(=O)c2ccccc2)cc1)NC(=O)OC(C)(C)C)C(=O)NCC(=O)NC(Cc1ccccc1)C(=O)NN` (stereo not given), the TGI was greater than 100 µM.
On the same count and under the same terms, the figure for `CC(C)c1ccc(/C=C2\CSCC3=C2N=C2SCC(=O)N2C3c2ccc(C(C)C)cc2)cc1` (stereo not given) is greater than 100 µM.
In the case of `Cc1c(Cl)cccc1NC(=O)c1sc2nc3c(cc2c1N)CCCC3`, the GI50 is greater than 88 µM and the TGI is greater than 100 µM.
On to `CC(=O)NC1C(OCc2ccccc2)OC(CO)C(O)C1OCC(=O)N[C@@H](C)C(=O)N[C@H](CCC(=O)NCCCNc1ccc([N+](=O)[O-])c2[nH]c3ccccc3c(=O)c12)C(N)=O` (stereo not given in full), for which the TGI was greater than 100 µM.
On to `c1ccc(-c2ccnc3c2ccc2c(-c4ccccc4)ccnc23)cc1`, for which the TGI turned out to be 6.14 µM.
As to `NS(=O)(=O)c1ccc(NC(=O)c2cccc(NC3=C(Cl)C(=O)N(Cc4ccccc4)C3=O)c2)cc1`, the GI50 was 14.7 µM and the TGI worked out at 29.1 µM.
Take `N#C/C(=C\c1ccc2[nH]ccc2c1)C(=O)c1ccc(O)c(O)c1`: the TGI was greater than 100 µM.
On the same count and under the same terms, in the case of `O=c1cc(N2CCCC2)[nH]c(=O)n1-c1ccc(Cl)cc1` it was greater than 100 µM.
The same measure, in the same setting: the figure for `Cc1ccc(/C=N/NS(=O)(=O)c2ccccc2)c(C)c1` is greater than 100 µM; for `CCOC(=O)C(C/C=C/CO)N(C)C(=O)OC(C)(C)C` (stereo not given) it is greater than 100 µM; for `FC(F)(F)c1ccc2nc(Sc3ccc4ccccc4c3)cnc2c1` it is greater than 100 µM.
Same read-out and setting: the figure for `c1cc2c(cc1C1=NCCN1)c1cc(C3=NCCN3)ccc1n2CC1CCCCC1` is 80.5 µM.
For `O=S1(=O)c2ccccc2N=C(c2ccccc2Cl)CC1c1ccc(F)cc1` (stereo not given), the TGI is 40.6 µM.
As to `CN=C(N)N/N=C(\C)c1ccc2c(c1)Cc1ccccc1-2`, the GI50 is 2.13 µM and the TGI turned out to be 6.1 µM.
Molecule `Clc1cc2nnn(C3CCCO3)c2cc1Cl` (stereo not given) showed a TGI greater than 100 µM.
Consider `C(=C/c1nc2ccccc2o1)/c1ccc2c(c1)OCO2`, for which the TGI is greater than 100 µM.
In turn, `O=C1C=C(N2CCN(CCOCCO)CC2)C(=O)c2c(O)ccc(O)c21` gave a TGI of 14 µM.
In turn, `O=C(Nc1ccc(Cl)cc1)c1cc(S(=O)(=O)Nc2n[nH]c(=O)n2-c2ccccc2)c(S)cc1Cl` displayed a TGI greater than 100 µM.
Take `CC[C@H](C)[C@H](NC(=O)[C@@H](N)CCC(N)=O)C(=O)N[C@@H](Cc1ccc(O)cc1)C(=O)N[C@@H](CCCCN)C(=O)N[C@@H](CCCCN)C(=O)N[C@@H](Cc1ccc(O)cc1)C(=O)N[C@@H](CCCNC(=N)N)C(=O)N[C@H](C(=O)N[C@@H](Cc1c[nH]c2ccccc12)C(=O)N[C@@H](Cc1ccc(O)cc1)C(=O)N[C@@H](CCCNC(=N)N)C(=O)N[C@@H](CCCCN)C(=O)N[C@@H](C)C(=O)N[C@@H](Cc1c[nH]c2ccccc12)C(=O)N[C@@H](CCCCN)C(=O)N[C@H](C(=O)N[C@@H](CC(C)C)C(=O)NCC(=O)N[C@@H](CCCCN)C(=O)N[C@H](C(N)=O)C(C)C)C(C)C)[C@@H](C)O` (H-QIYKKYRTWYRKAWKVLGKV-NH2): the GI50 is 4.57 µM and the TGI was 17.5 µM.
`O=C1N(c2ccccc2)C(=S)/C(=C/c2ccc(Cl)cc2)N1c1ccc(Cl)cc1` had a TGI greater than 100 µM.
Still for that read-out and setting: in the case of `COC(=O)c1cc(/C=C\c2cc(OC)ccc2OC)ccc1OC` it was greater than 100 µM.
Regarding `CC(C)(C)C1=C(Br)C(OC(=O)C(F)(F)F)(C(C)(C)C)OP1(=O)c1ccccc1` (stereo not given), the TGI is greater than 100 µM.
For the molecule `CC(C)=NOC(=O)Nc1cccc2c1OCO2`, the TGI is greater than 100 µM.
`CC(N1CCOCC1)C(O)(c1ccccc1)c1ccccn1` (stereo not given) returned a TGI greater than 100 µM.
The same measure, in the same setting: the figure for `CCOC(=O)CC(NC(=O)c1ccc(N=NN(C)C)cc1)C(=O)OCC` (stereo not given) is greater than 100 µM.
With `O=C1/C(=C\c2ccccc2)C2OCC=C3CN4CCC56c7ccccc7N1C5C2C3CC46` (stereo not given), the GI50 is 89.9 µM and the TGI was greater than 100 µM.
As to `C=CC(C)(O)CC/C=C(\CO)C(=O)OC1C(C)OC(O[C@](C)(C=C)CC/C=C(\CO)C(=O)O[C@H]2C[C@@]3(C(=O)OC4OC(CO)C(O)C(O)C4OC4OC(C)C(OC5OC(CO)C(O)C5O)C(OC5OC(CO)C(O)C(O)C5O)C4O)C(CC2(C)C)C2=CCC4[C@@]5(C)CC[C@H](OC6OC(COC7OC(C)C(O)C(O)C7OC7OCC(O)C(O)C7O)C(O)C(O)C6NC(C)=O)C(C)(C)C5CC[C@@]4(C)[C@]2(C)C[C@H]3O)C(O)C1O` (stereo not given in full), the GI50 is 0.0793 µM and the TGI was found to be 0.294 µM.
`O=c1[nH]cc(C(F)(C(F)(F)F)C(F)(F)F)c(=O)[nH]1`: the TGI was greater than 100 µM.
For `c1ccc(-c2nnc3nn4c(-c5ccccc5)cnnc4c3c2-c2ccccc2)cc1`, the TGI is greater than 100 µM.
